Measured values: PubChem BioAssay AID686971 (National Center for Advancing Translational Sciences (NCATS), 2013)
Hit rate of the full screen: of about 360,000 compounds, about 7,500 (2.1%) were called active. The shares of active, inactive and inconclusive entries below differ from those in the screen. Calls follow the shape of the dose curve; as a rule, active = well fitted cell-killing curve with a large enough effect; inconclusive = small, poorly fitted or top-dose-only effect, or effect the other way, or another doubt; inactive = no such curve, though single readings can be large or run the other way. Potencies of inconclusive entries are left out as doubtful fits.

Test: qHTS for induction of synthetic lethality in tumor cells producing 2HG: qHTS for the HT-1080-IDH1KD cell line;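 as to activity, negative = toxicity: 0% = DMSO wells and -100% = cell-free medium wells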
Conditions: HT-1080 IDH1 knockdown viability, ATP luminescence, 48 h; activity, negative = toxicity: at 46.1 µM (top of the series) unless noted
Method in brief: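 HT-1080-IDH1KD cells (IDH1 knocked down), 750/well in RPMI with 5% FBS, treated with compound 48 h at 37 degrees C. Viability by CellTiter-Glo luminescence, normalised to DMSO and no-cell wells; concentration-response curves classed.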
Potency is read from the fitted curve at half-maximal effect; tags tell the direction and shape of the fitted curve.

SMILES | Potency | activity, negative = toxicity
CC(C)(C)OC(=O)N1C(=O)[C@](OC(=O)c2ccccc2)(c2ccccc2)c2cccc(F)c21 | inconclusive [cytotoxic, single point] | –
NCCNC(=O)c1c(NC(=O)c2ccccc2)sc2c1CCCC2 | inconclusive [cytotoxic, single point] | –
CCOC(=O)C1=C(N)Oc2cc(O)ccc2C1c1ccccc1 (centres undefined) | inconclusive [cytotoxic, single point] | –
Cc1ccc(C)c(N=Nc2nc3ccccc3n2C)c1 | active: 7.94 µM | –
O=C(CN1C(=O)c2cccc3cccc1c23)N1CCN(c2ccc(F)cc2)CC1 | inconclusive [cytotoxic, single point] | –
O=C(Nc1cccnc1)c1cc(-c2ccc(Br)cc2)nc2ccccc12 | inconclusive [cytotoxic, single point] | –
CCCCCCN1C[C@H](n2cc(C3CC3)nn2)[C@@H](O)C[C@@H]1c1ccc(C)cc1 | inconclusive [cytotoxic, single point] | –
NC(=S)N/N=C1\CCSc2ccc(Cl)cc21 | inactive | –
CC1=CC(C)(C)N2C(=O)C(=Nc3ccc(O)cc3)c3cccc1c32 | active: 25.9 µM | –
Cc1nc(Nc2ccccc2Br)c2nnn(Cc3ccccc3)c2n1 | inactive | –
O=C(CC(SCCO)c1ccc2c(c1)OCO2)c1cccs1 (centres undefined) | inconclusive [cytotoxic, partial curve, poor fit] | –
Nc1nc(NCCO)nc(NC2CCCCC2)c1[N+](=O)[O-] | inconclusive [cytotoxic, single point] | –
O=C(c1ccc(-c2ccc(Cl)cc2)o1)N1CCN(c2ccc([N+](=O)[O-])cc2Cl)CC1 | inconclusive [cytotoxic, partial curve] | –
COC(=O)c1c(NC(=O)COC(=O)C2CCC2)sc(C)c1C | inactive | –
O=CNc1cc(-c2cccc(F)c2)cn2c(-c3ccc(F)c(Cl)c3)cnc12 | inconclusive [cytotoxic, single point] | –
COc1ccc(C(=O)NC(NC(=S)Nc2ccc(S(N)(=O)=O)cc2)C(Cl)(Cl)Cl)cc1 (centres undefined) | – | inconclusive: -32.4% [cytotoxic]
N#Cc1c(NCCCO)nc(NCc2ccccc2)c2c1CCN(Cc1ccccc1)C2 | inconclusive [cytotoxic, single point] | –
CCCCN(Cc1ccco1)S(=O)(=O)c1c[nH]c(C(=O)OC)c1 | inconclusive [cytotoxic, single point] | –
CC1CCN(c2nc(/C=C/c3ccccc3)nc3ccccc23)CC1 | inconclusive [cytotoxic, single point] | –
COc1cc(C#Cc2c(-c3cncn3C)n(C)c3ccc(-c4cc(OC)c(OC)c(OC)c4)cc23)cc(OC)c1 | inconclusive [cytotoxic, single point] | –
CCc1ccc(NC(=O)[C@H](Cc2ccccc2)NC(=O)C2CCN(C(=O)[C@@H](N)CC(C)C)CC2)cc1 | inactive | –
Cc1cc(OCC(=O)Nc2ccccc2C)no1 | inactive | –
S=C(Nc1ccc(N2CCOCC2)cc1)Nc1ccc2nc(-c3ccco3)c(-c3ccco3)nc2c1 | inconclusive [cytotoxic, single point] | –

SMILES | Potency | activity, negative = toxicity
CCN(C[C@H]1N[C@@](Cc2ccccc2)(C(=O)OC)[C@H]2C(=O)N(Cc3ccccc3)C(=O)[C@@H]12)C(=O)COC | inactive | –
Cc1ccc(-c2csc(NC(=O)CN3CCOCC3)n2)cc1 | inconclusive [cytotoxic, single point] | –
CC(=O)c1ccccc1OCCn1nc(C(=O)O)c2ccccc2c1=O | inactive | –
Cn1c(CCN2CCN(c3ccccn3)CC2)nc2cc(NC(=O)COc3ccc(Cl)cc3)ccc21 | inactive | –
Cc1cnc(C(=O)OCC(=O)Nc2ccc(C)c(S(=O)(=O)N3CCOCC3)c2)cn1 | inactive | –
CCOc1cc(N(CC)CC)ccc1/C=C(/C#N)c1nc2ccccc2[nH]1 | inconclusive [cytotoxic, single point] | –
N/C(=N\OC(=O)c1cccc2ccccc12)c1ccccn1 | active: 25.9 µM | –
CC(C)(C)C(=O)NC(=S)NNC(=O)C(c1ccccc1)c1ccccc1 | active: 11.6 µM | –
Cc1ccc(NC(=S)NNC(C)(C)C)cc1 | active: 18.4 µM | –
COc1ccc(C(=O)/C=C2/C(=O)Nc3ccccc32)cc1 | inconclusive [cytotoxic, single point] | –
CCN(CC)CCCC(C)Nc1nccc2cccc(Cl)c12 (centres undefined) | inactive | –
COC(=O)c1c(-c2c(Cl)cccc2Cl)noc1NC(=O)NN1CCCCC1 | inconclusive [cytotoxic, single point] | –
NS(=O)(=O)c1ccc(CCNc2nn3c(-c4cccc(OC(F)(F)F)c4)cnc3s2)cc1 | active: 8.2 µM | –
CC(C)C1CCN(C(=O)C2CCC(=O)N(C3CCCCCC3)C2)CC1 (centres undefined) | inactive | –
CCCN(CCC)Cc1c(C(=O)N/N=C/C(C)=C\c2ccccc2)nnn1-c1nonc1N | inconclusive [cytotoxic, single point] | –
CCO[C@H]1OC(C(=O)NCc2nc3ccccc3[nH]2)=C[C@@H](C)[C@@H]1CCCO | inactive | –
Cc1ccc(-c2sc(C(=O)NN)c(C)c2C#N)cc1 | inconclusive [cytotoxic, partial curve] | –
N#C/C(=C\c1ccc(Sc2nc3ccccc3[nH]2)o1)c1ccccc1 | inconclusive [cytotoxic, single point] | –
CCOC(=O)C1(Cc2cccc(F)c2)CCN(Cc2cnn(CC)c2C)CC1 | inactive | –
CC(=O)N1CCN(c2ccc(NC(=O)c3ccc4c(c3)OCO4)cc2)CC1 | inactive | –
COc1ccc2oc(C(=O)Nc3nc(-c4ccccn4)cs3)c(C)c2c1 | inconclusive [cytotoxic, partial curve] | –
CCOC(=O)c1c(C)oc2c1c(CN1CCN(C(=O)OCC)CC1)c(O)c1ccccc12 | inconclusive [cytotoxic, single point] | –
COc1ccc(NC(=O)c2csc3c2CCCC3)cc1 | inconclusive [cytotoxic, single point] | –

SMILES | Potency | activity, negative = toxicity
COc1ccc(-c2nnc(NC(=O)c3ccc(S(=O)(=O)N4COCC4(C)C)cc3)o2)cc1 | active: 8.2 µM | –
COc1ccc(-c2csc(C(C)(O)c3ccc(F)c(F)c3)n2)cn1 (centres undefined) | inconclusive [cytotoxic, single point] | –
O=C(c1ccc([N+](=O)[O-])s1)N1CCCc2ccccc21 | inconclusive [cytotoxic, single point] | –
O=C(Cc1cccs1)Nc1cccc(C(=O)Nc2ccco2)c1 | active: 11.2 µM | –
Oc1ccc(CN2CCc3ccccc3C2)c2cccnc12 | active: 13 µM | –
COc1ccccc1C(NC(=O)C1CCN(CCc2ccc(Br)cc2)CC1)c1ccccn1 (centres undefined) | inconclusive [cytotoxic, single point] | –
COc1ccccc1C1C2=C(N=c3s/c(=C/c4cccc(OCC(=O)O)c4)c(=O)n31)c1ccccc1CC2 (centres undefined) | inconclusive [cytotoxic, single point] | –
COC(=O)[C@@]1(Cc2ccc(F)cc2)[C@H]2c3cc(C(=O)N4CCCC4)n(Cc4ccc(S(C)(=O)=O)cc4)c3C[C@H]2CN1C(=O)c1ccccc1 | inconclusive [cytotoxic, partial curve] | –
O=C(CCNC(=O)c1ccccc1)NNC(=O)c1ccccc1Br | inactive | –
CCOC(=O)C1=C(C)Nc2ccccc2N=C1N | inconclusive [rising, partial curve] | –
COc1cc(-c2nc(-c3ccccc3)c(-c3cccs3)[nH]2)cc(OC)c1O | inactive | –
Cc1ccc(C(=O)N2CCc3cc4c(cc3C2C)OCCCO4)cc1 (centres undefined) | inconclusive [cytotoxic, single point] | –
O=C(NNc1c2ccccc2nc2ccccc12)C(O)c1ccccc1 (centres undefined) | inconclusive [cytotoxic, partial curve] | –
Cc1nn(Cc2ccc(F)cc2)c(Cl)c1/C=N/NC(=O)c1ccccc1 | inconclusive [cytotoxic, full curve, poor fit] | –
O=C1c2c(-c3ccc(Br)cc3)noc2CCN1Cc1cn(Cc2ccccc2)nn1 | inconclusive [cytotoxic, single point] | –
CC(C)C[C@H]1CN(CCCC[C@@H]2CNC(=O)C(=O)N2Cc2ccccc2)C(=O)C(=O)N1CC1CCCCC1 | inactive | –
O=C(Nc1ccc(NC(=S)NC(=O)c2ccccc2Cl)cc1)c1cccc(Cl)c1 | inconclusive [cytotoxic, partial curve] | –
COc1ccc(NC(=O)Cn2cc(C#N)c3ccccc32)cc1 | inconclusive [cytotoxic, single point] | –
COc1cccc(CN2CCC2(C)C(=O)Nc2cccc3cccnc23)c1OC (centres undefined) | inconclusive [cytotoxic, partial curve] | –
COc1ccccc1NC(=O)Nc1nc(C(N)CCc2ccccc2)cs1 (centres undefined) | inconclusive [cytotoxic, single point] | –
CN(C)C(=O)c1cccc(-c2cnc3c(NC=O)cc(-c4ccccc4Cl)cn23)c1 | inconclusive [cytotoxic, partial curve] | –
O=c1c2cc(F)ccc2sn1-c1ccc(F)cc1 | inconclusive [cytotoxic, single point] | –
CCc1ccc(-c2cn(C3CCCCC3)c(=S)[nH]2)cc1 | – | inconclusive: -13.2% [cytotoxic]
